Reference: article PMC11995724, “Antibiotic target discovery by integrated phenotypic and activity-based profiling of electrophilic fragments” (Cell chemical biology, 2025)
Screen size: about 3,200 compounds; about 75 (2%) showed an effect of 50% or more. The list shows a part of the results.

test system: T1, S. aureus MSSA476; set-up: species or system S. aureus MSSA476 (TSB) or V. cholerae SAD30 (LB); 384-well bacterial growth screen at 25 uM, OD600 relative to DMSO control; conditions: relative growth, OD600, TSB; 25 µM; inhibitor
T1 construct: MSSA476

First: Cc1cc(NS(=O)(=O)c2ccc(NC(=O)CCl)cc2)nc(C)n1 [5-I09, 2-chloro-N-{4-[(2,6-dimethylpyrimidin-4-yl)sulfamoyl]phenyl}acetamide]
Second: CC1CN(S(=O)(=O)c2ccc(NC(=O)CCl)cc2)CC(C)O1 (stereo not drawn) [5-O15, 2-chloro-N-{4-[(2,6-dimethylmorpholin-4-yl)sulfonyl]phenyl}acetamide]
The “% of control remaining” value of the first is higher: 100.182% for the first, 94.7177% for the second.

Going from `Cc1noc(C)c1CN(C)C(=O)CCl` [5-G06, 2-chloro-N-[(3,5-dimethyl-1,2-oxazol-4-yl)methyl]-N-methylacetamide] to `Cc1noc(C)c1C(=O)CCl` [10-K13, 2-chloro-1-(3,5-dimethyl-1,2-oxazol-4-yl)ethan-1-one], the “% of control remaining” value falls from 96.5392% to 89.375%.

Going from `CC(C)c1ccc(CC(=O)CCl)cc1` [10-I17, 1-chloro-3-[4-(propan-2-yl)phenyl]propan-2-one] to `CC(Cl)C(=O)N(Cc1ccc(Cl)cc1)Cc1cnn(C)c1` (stereo not drawn) [5-P17, 2-chloro-N-[(4-chlorophenyl)methyl]-N-[(1-methyl-1H-pyrazol-4-yl)methyl]propanamide], the “% of control remaining” value falls from 109.375% to 95.4463%.

First: C=CC(=O)N(C)C[C@@H]1CCC(=O)N1 [3-A22, N-methyl-N-{[(2S)-5-oxopyrrolidin-2-yl]methyl}prop-2-enamide]
Second: C=CC(=O)Nc1ccc(CN2CCC(C)CC2)cc1 [1-D21, N-{4-[(4-methylpiperidin-1-yl)methyl]phenyl}prop-2-enamide]
The “% of control remaining” value of the first is higher: 138.964% for the first, 103.033% for the second.

First: C=CC(=O)NC(c1nc(C)cs1)C(F)(F)F (stereo not drawn) [2-I17, N-[2,2,2-trifluoro-1-(4-methyl-1,3-thiazol-2-yl)ethyl]prop-2-enamide]
Second: C=CC(=O)NCc1ncc(C)o1 [2-P21, N-[(5-methyl-1,3-oxazol-2-yl)methyl]prop-2-enamide]
The “% of control remaining” value of the first is higher: 113.838% for the first, 87.7285% for the second.

First: C=CC(=O)NCc1ccc(C(=O)N2CCCC2)cc1 [3-O05, N-{[4-(pyrrolidine-1-carbonyl)phenyl]methyl}prop-2-enamide]
Second: C=CC(=O)NCc1ccc(-n2ccc(C)n2)nc1 [3-H16, N-{[6-(3-methyl-1H-pyrazol-1-yl)pyridin-3-yl]methyl}prop-2-enamide]
The “% of control remaining” value of the first is lower: 88.8115% for the first, 95.7771% for the second.

Going from `CNC(=O)c1cc(OC2CCCN(C(=O)CCl)C2)ccn1` (stereo not drawn) [5-P05, 4-{[1-(2-chloroacetyl)piperidin-3-yl]oxy}-N-methylpyridine-2-carboxamide] to `C=CC(=O)N1CCCC(S(=O)(=O)NC)C1` (stereo not drawn) [3-D17, N-methyl-1-(prop-2-enoyl)piperidine-3-sulfonamide], the “% of control remaining” value rises from 85.9745% to 96.8219%.

Compared with `Cc1ccc(C=C(C#N)C(=O)NC(N)=O)o1` [8-D21, {2-cyano-2-[(5-methylfuran-2-yl)methylidene]acetyl}urea], `COc1ccc(C=C(C#N)C(=O)Nc2ccc(C(=O)O)cc2)cc1O` [9-F10, 4-[2-cyano-3-(3-hydroxy-4-methoxyphenyl)prop-2-enamido]benzoic acid] is lower in “% of control remaining” value: 99.917% for the first, 85.6929% for the second.

First: COc1ccc(-c2csc(NC(=O)CCl)n2)c(OC)c1 [4-F12, 2-chloro-N-[4-(2,4-dimethoxyphenyl)-1,3-thiazol-2-yl]acetamide]
Second: C=CC(=O)NCc1cc(-c2cccc(OC)c2)no1 [1-I11, N-{[3-(3-methoxyphenyl)-1,2-oxazol-5-yl]methyl}prop-2-enamide]
The “% of control remaining” value of the first is lower: 83.4683% for the first, 116.747% for the second.

First: CC(Cl)C(=O)Nc1ccc2ccccc2c1 (stereo not drawn) [5-H10, 2-chloro-N-(naphthalen-2-yl)propanamide]
Second: O=C1C=CC(=O)N1c1ccc2ccccc2c1 [10-D07, 1-(naphthalen-2-yl)-2,5-dihydro-1H-pyrrole-2,5-dione]
The “% of control remaining” value of the first is higher: 121.311% for the first, 3.125% for the second.

Going from `CC(C)CNC(=O)c1ccccc1NC(=O)CCl` [4-E04, 2-(2-chloroacetamido)-N-(2-methylpropyl)benzamide] to `Cc1ccc(C(=O)c2ccccc2NC(=O)CCl)cc1` [4-N17, 2-chloro-N-[2-(4-methylbenzoyl)phenyl]acetamide], the “% of control remaining” value rises from 88.4231% to 134.54%.

Going from `CC(Cl)C(=O)Nc1ncnc2[nH]cnc12` (stereo not drawn) [6-I18, 2-chloro-N-(9H-purin-6-yl)propanamide] to `COc1cc(NC(=O)C(C)Cl)cc(OC)c1` (stereo not drawn) [4-I04, 2-chloro-N-(3,5-dimethoxyphenyl)propanamide], the “% of control remaining” value rises from 96.9756% to 105.574%.

Compared with `Cl.O=C1C=CC(=O)N1C1CNC1` [10-O19, 1-(azetidin-3-yl)-2,5-dihydro-1H-pyrrole-2,5-dione hydrochloride], `C=CC(=O)Nc1ccc(C2=NNC(=O)CO2)cc1` [3-L18, N-[4-(5-oxo-5,6-dihydro-4H-1,3,4-oxadiazin-2-yl)phenyl]prop-2-enamide] is higher in “% of control remaining” value: 105.313% for the first, 120.853% for the second.

Going from `N#CC(=CC1=Cc2ccccc2OC1)C(=O)Nc1ccc(C(=O)O)cc1` [8-N08, 4-[3-(2H-chromen-3-yl)-2-cyanoprop-2-enamido]benzoic acid] to `N#CC(=Cc1ccc(O)c(O)c1)C(=O)Nc1cccc(Cl)c1Cl` [8-F07, 2-cyano-N-(2,3-dichlorophenyl)-3-(3,4-dihydroxyphenyl)prop-2-enamide], the “% of control remaining” value falls from 101.245% to 87.3029%.

Compared with `CC(Cl)C(=O)NCCN(C)S(=O)(=O)c1cccs1` (stereo not drawn) [7-F05, 2-chloro-N-[2-(N-methylthiophene-2-sulfonamido)ethyl]propanamide], `C=CC(=O)NCCS(=O)(=O)c1cccs1` [3-J17, N-[2-(thiophene-2-sulfonyl)ethyl]prop-2-enamide] is higher in “% of control remaining” value: 88.54% for the first, 101.001% for the second.

Compared with `N#CC(C(=O)Nc1ccc2c(c1)OCCO2)=C1N=C(N)c2ccccc21` [8-L03, 2-(3-amino-1H-isoindol-1-ylidene)-2-cyano-N-(2,3-dihydro-1,4-benzodioxin-6-yl)acetamide], `C=CCNC(=O)C(C#N)=Cc1cc(C)n(-c2ccc(C)cc2)c1C` [8-C17, 2-cyano-3-[2,5-dimethyl-1-(4-methylphenyl)-1H-pyrrol-3-yl]-N-(prop-2-en-1-yl)prop-2-enamide] is lower in “% of control remaining” value: 128.133% for the first, 70.0415% for the second.

First: CC(Cl)C(=O)NC(C)c1nnc2n1CCCC2 (stereo not drawn) [6-H13, 2-chloro-N-(1-{5H,6H,7H,8H-[1,2,4]triazolo[4,3-a]pyridin-3-yl}ethyl)propanamide]
Second: CC(Cl)C(=O)NCC(NS(=O)(=O)N(C)C)C1CCCC1 (stereo not drawn) [7-G16, 2-chloro-N-{2-cyclopentyl-2-[(dimethylsulfamoyl)amino]ethyl}propanamide]
The “% of control remaining” value of the first is higher: 109.268% for the first, 86.6562% for the second.

Compared with `CCN(C(=O)CCl)C(c1ccccc1)c1ccc(F)cc1` (stereo not drawn) [6-J11, 2-chloro-N-ethyl-N-[(4-fluorophenyl)(phenyl)methyl]acetamide], `CN(C)S(=O)(=O)c1ccccc1CNC(=O)CCl` [4-J22, 2-chloro-N-{[2-(dimethylsulfamoyl)phenyl]methyl}acetamide] is higher in “% of control remaining” value: 92.878% for the first, 126.155% for the second.

Compared with `C=CC(=O)Nc1ccoc1C(=O)c1ccc(C)cc1` [1-A04, N-[2-(4-methylbenzoyl)furan-3-yl]prop-2-enamide], `Cn1ccnc1Sc1ccc(C=C(C#N)C(N)=O)cc1[N+](=O)[O-]` [8-D03, 2-cyano-3-{4-[(1-methyl-1H-imidazol-2-yl)sulfanyl]-3-nitrophenyl}prop-2-enamide] is lower in “% of control remaining” value: 113.934% for the first, 97.9253% for the second.

Compared with `C=CC(=O)NCc1nnc(COC)[nH]1` [3-F10, N-{[5-(methoxymethyl)-4H-1,2,4-triazol-3-yl]methyl}prop-2-enamide], `C=CC(=O)N[C@H]1CCCC[C@H]1n1cc(C(C)(C)O)nn1` [1-P07, N-[(1S,2R)-2-[4-(2-hydroxypropan-2-yl)-1H-1,2,3-triazol-1-yl]cyclohexyl]prop-2-enamide] is lower in “% of control remaining” value: 90.9012% for the first, 85.8022% for the second.

First: CC(Cl)C(=O)N1CCOCC1c1nc(-c2cccs2)no1 (stereo not drawn) [7-B17, 2-chloro-1-{3-[3-(thiophen-2-yl)-1,2,4-oxadiazol-5-yl]morpholin-4-yl}propan-1-one]
Second: Cc1ccc(NC(=O)N2CCSSCC2)c(C)c1 [10-F11, N-(2,4-dimethylphenyl)-1,2,5-dithiazepane-5-carboxamide]
The “% of control remaining” value of the first is higher: 100.157% for the first, 91.5625% for the second.

First: C=CC(=O)N1CCC(C(=O)N2CCc3ccc([N+](=O)[O-])cc32)CC1 [1-C06, 1-[4-(6-nitro-2,3-dihydro-1H-indole-1-carbonyl)piperidin-1-yl]prop-2-en-1-one]
Second: C=CC(=O)N1CCC(C(=O)N[C@H](C)c2ccc3c(c2)CCCC3)CC1 [3-P12, 1-(prop-2-enoyl)-N-[(1R)-1-(5,6,7,8-tetrahydronaphthalen-2-yl)ethyl]piperidine-4-carboxamide]
The “% of control remaining” value of the first is higher: 93.8901% for the first, 85.677% for the second.

In the case of `O=C(CCl)NC1CCS(=O)(=O)c2ccc(F)cc21` (stereo not drawn) [7-H06, 2-chloro-N-(6-fluoro-1,1-dioxo-3,4-dihydro-2H-1lambda6-benzothiopyran-4-yl)acetamide], the “% of control remaining” value was 94.1915%.
